Test results taken from the supplement of paper PMC10126150.
Values marked as one replicate rest on one cluster of the flow cell; about a third of the high ones do not repeat.

Test system: ATP
Experiment: switch fluorescence ratio, 500 uM ATP over buffer (Cy3 cluster intensity, sum of 5 cycles each) (fold (ratio)); higher = stronger signal-on switching upon ATP binding; sequences stand for … in TCGTCGGCAGCGTCAGATGTGTATAAGAGACAGTTTTTTTTTTTTTTTTTTTTTTTTT…TC
Conditions: aptamer strand: ATP DNA aptamer (quencher-CACCTGGGGGAGTATTGCGGAGGAAGG + anchor), 100 nM annealed; ATP concentration: 500 uM; one replicate
How it was run: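 The fluorescence ratio divides summed target-cycle Cy3 intensity by summed buffer-cycle Cy3 intensity for each cluster and is averaged per switch-domain sequence. Cy3-labelled switching-strand clusters on a modified Illumina MiSeq flow-cell were annealed to 100 nM quencher-labelled ATP aptamer, then imaged in selection buffer and again after 15 min with 500 uM ATP at 22 °C. Five such cycles were run, with NaOH stripping and re-annealing between them, and clusters outside 100-1000 RFU were excluded.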
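Note: ATP exposure 15 min at 22 °C before imaging.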

GGGATTGATA
switch fluorescence ratio: 1.05

TTAAGAGGCG
switch fluorescence ratio: 0.981

TAGGTAAAAG
switch fluorescence ratio: 0.946

GGGTTTCTTT
switch fluorescence ratio: 1.04

GTTCCCTATC
switch fluorescence ratio: 1.02

CATCCCCGCC
switch fluorescence ratio: 2.46

GATGCGATGG
switch fluorescence ratio: 1.72

GACGACGGCA
switch fluorescence ratio: 1.3

GCGGTCTTCC
switch fluorescence ratio: 1.01

ACTCCCTGCG
switch fluorescence ratio: 1.59

TTTAATCCTG
switch fluorescence ratio: 0.982

ACGAATCTTT
switch fluorescence ratio: 1

AAAACATACT
switch fluorescence ratio: 1.3

GGTGGCTTGT
switch fluorescence ratio: 0.986

TAGGGTACTG
switch fluorescence ratio: 1.1

CTCAGCTTTT
switch fluorescence ratio: 1.41

AAGCGTGTAG
switch fluorescence ratio: 1.08

TCTTGTACGC
switch fluorescence ratio: 1.03

TTACTGTTGC
switch fluorescence ratio: 1.01

TAGCAACATT
switch fluorescence ratio: 1.04

GCCTATTCCG
switch fluorescence ratio: 1.01

ATAGCCCCTG
switch fluorescence ratio: 1.01

CAGTATACGA
switch fluorescence ratio: 1.06

GATTGTTAT
switch fluorescence ratio: 0.988

GTTACTGACG
switch fluorescence ratio: 1.08

CATTGTTGCT
switch fluorescence ratio: 1.01

ACATCCACCT
switch fluorescence ratio: 1.31

GGATGGTTGT
switch fluorescence ratio: 1.03

CGACAATAGA
switch fluorescence ratio: 1.42

ACGTTCCTTC
switch fluorescence ratio: 1.47

CCTGTAGCG
switch fluorescence ratio: 1.14

GGGATCTTAT
switch fluorescence ratio: 0.963

GACCATGTTG
switch fluorescence ratio: 1.03

TTACCTTTAT
switch fluorescence ratio: 1.19

CCGTGGATTT
switch fluorescence ratio: 0.995

TTACAAGAAT
switch fluorescence ratio: 0.967

TGCCTTGGCA
switch fluorescence ratio: 1.04

CTTATATCAG
switch fluorescence ratio: 0.95

GGTGAATCAA
switch fluorescence ratio: 0.985

AGTTGCGACT
switch fluorescence ratio: 1

GGGTCAACCG
switch fluorescence ratio: 0.995

AGACTCACAT
switch fluorescence ratio: 1.11

TAGCATGTAA
switch fluorescence ratio: 1.02

CATGAAGGGC
switch fluorescence ratio: 1.02

CGATAATCTG
switch fluorescence ratio: 1.06

TGCCTAAGGG
switch fluorescence ratio: 1.09

ATGGTTTCCG
switch fluorescence ratio: 1

GAGTGAGGTA
switch fluorescence ratio: 0.977

GAGAGCTAGG
switch fluorescence ratio: 0.944

TATACCCTGC
switch fluorescence ratio: 1.05

GATCAGCAAC
switch fluorescence ratio: 1.98

CTGGCCCGT
switch fluorescence ratio: 0.995

CGTTAACCGG
switch fluorescence ratio: 0.994

TGCCAGATAC
switch fluorescence ratio: 2

AGCGGTACTG
switch fluorescence ratio: 1.14

TGGATGTAGT
switch fluorescence ratio: 0.986

ATGTACACCA
switch fluorescence ratio: 1.09

ATGATAACCT
switch fluorescence ratio: 1.49

GAGCTGAGGC
switch fluorescence ratio: 1.03

AATTATTTCA
switch fluorescence ratio: 1

CTAATAGTCT
switch fluorescence ratio: 1.06

TCTGTGCTTG
switch fluorescence ratio: 1.02

AAAGCGGTGC
switch fluorescence ratio: 1.22

GCTCGGGTAT
switch fluorescence ratio: 0.981

CGAATCTCCT
switch fluorescence ratio: 1.11

TATCCAATGT
switch fluorescence ratio: 1.02

ACCTGTGTAG
switch fluorescence ratio: 1.13

GGGTCCCG
switch fluorescence ratio: 0.962

TATAACGCGG
switch fluorescence ratio: 1.02

ACTCCCTGAT
switch fluorescence ratio: 1.33

GGCGTCTCAG
switch fluorescence ratio: 1.01

ATTCTTTAAT
switch fluorescence ratio: 0.958

TGCAAGTATC
switch fluorescence ratio: 1.41

GGGGTTCTAC
switch fluorescence ratio: 1.01

AGAATAAGGG
switch fluorescence ratio: 0.978

CATTCACGTA
switch fluorescence ratio: 1.17

GTTGTAGCGA
switch fluorescence ratio: 1.1

CTAGGCCAGG
switch fluorescence ratio: 1.15

AATAGAAACT
switch fluorescence ratio: 0.983

AGTCTCGCCT
switch fluorescence ratio: 0.986

AGAGATAGG
switch fluorescence ratio: 0.995

AGCGTCTCGA
switch fluorescence ratio: 1.01

TTCATACGTG
switch fluorescence ratio: 0.957

AATTCCCAGG
switch fluorescence ratio: 4.49

TTTCCCCAAA
switch fluorescence ratio: 0.997
